Test [1] has as its target T1, SCL28 (yeast two-hybrid fusion, pGBKT7) (Arabidopsis thaliana) (UniProt Q1PDV2).
T1 sequence: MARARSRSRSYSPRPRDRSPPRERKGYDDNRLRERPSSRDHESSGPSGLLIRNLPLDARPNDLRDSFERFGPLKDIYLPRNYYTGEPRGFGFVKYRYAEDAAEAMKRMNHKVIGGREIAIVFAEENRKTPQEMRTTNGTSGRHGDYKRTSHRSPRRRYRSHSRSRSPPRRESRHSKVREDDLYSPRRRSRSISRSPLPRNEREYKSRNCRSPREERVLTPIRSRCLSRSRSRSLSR
As to the kind of experiment: two-hybrid; yeast strain AH109, pGBKT7 and pGADT7 constructs cotransformed pairwise; selection on SD-Trp-Leu-His-Ade and SD-Trp-Leu-His + 5 mM 3-AT; 30°C, 3-6 d.

Test [2] deals with T2, SC35 (yeast two-hybrid fusion, pGBKT7) (Arabidopsis thaliana) (UniProt Q9FMG4).
T2 sequence: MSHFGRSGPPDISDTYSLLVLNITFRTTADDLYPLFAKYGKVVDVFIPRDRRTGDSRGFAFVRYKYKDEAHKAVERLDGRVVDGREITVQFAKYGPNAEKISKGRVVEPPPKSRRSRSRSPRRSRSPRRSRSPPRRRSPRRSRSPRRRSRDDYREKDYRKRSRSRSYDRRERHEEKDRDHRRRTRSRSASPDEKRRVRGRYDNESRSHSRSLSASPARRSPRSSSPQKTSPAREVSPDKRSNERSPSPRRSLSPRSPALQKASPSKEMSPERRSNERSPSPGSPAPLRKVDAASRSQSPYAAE
The test is described as above.

Test [3] addresses T3, SCL30a (yeast two-hybrid fusion, pGBKT7) (Arabidopsis thaliana) (UniProt Q9LHP2).
T3 sequence: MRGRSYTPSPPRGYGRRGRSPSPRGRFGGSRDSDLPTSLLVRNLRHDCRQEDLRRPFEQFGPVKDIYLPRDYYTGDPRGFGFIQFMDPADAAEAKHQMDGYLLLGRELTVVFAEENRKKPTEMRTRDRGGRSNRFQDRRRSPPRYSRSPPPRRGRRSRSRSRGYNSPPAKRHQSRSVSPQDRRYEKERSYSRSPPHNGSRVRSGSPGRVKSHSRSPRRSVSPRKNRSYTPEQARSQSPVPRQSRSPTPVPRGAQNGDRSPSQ
The test is described as above.

In test [4] the target is T4, SCL33 (yeast two-hybrid fusion, pGBKT7) (Arabidopsis thaliana) (UniProt Q9SEU4).
T4 sequence: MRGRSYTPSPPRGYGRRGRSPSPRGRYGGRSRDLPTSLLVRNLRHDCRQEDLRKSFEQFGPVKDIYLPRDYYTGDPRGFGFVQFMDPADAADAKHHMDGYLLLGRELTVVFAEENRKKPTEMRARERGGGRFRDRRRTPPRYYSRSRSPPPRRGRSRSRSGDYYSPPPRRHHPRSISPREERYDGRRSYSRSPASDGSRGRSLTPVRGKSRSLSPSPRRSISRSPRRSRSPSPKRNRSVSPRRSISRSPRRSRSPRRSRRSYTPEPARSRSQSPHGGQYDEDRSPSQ
The test is described as above.

Test [5] concerns the target T5, SCL30 (yeast two-hybrid fusion, pGBKT7) (Arabidopsis thaliana) (UniProt Q8L3X8).
T5 sequence: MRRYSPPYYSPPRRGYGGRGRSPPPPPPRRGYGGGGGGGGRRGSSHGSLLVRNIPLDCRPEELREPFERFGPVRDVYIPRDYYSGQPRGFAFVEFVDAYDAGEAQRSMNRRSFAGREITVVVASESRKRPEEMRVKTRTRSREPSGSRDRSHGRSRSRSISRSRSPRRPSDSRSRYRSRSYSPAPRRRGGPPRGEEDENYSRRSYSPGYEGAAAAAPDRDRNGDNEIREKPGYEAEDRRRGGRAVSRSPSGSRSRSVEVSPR
The description is as above.

The next test has as its target T6, NRPB4-YFP (UniProt O48890).
T6 sequence: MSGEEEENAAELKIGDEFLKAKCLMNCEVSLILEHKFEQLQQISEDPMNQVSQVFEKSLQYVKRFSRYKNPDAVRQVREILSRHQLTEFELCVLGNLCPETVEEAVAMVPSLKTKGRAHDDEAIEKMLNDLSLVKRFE
The test is described as follows: co-IP; SC35/SCL-Flag and NRPB4-YFP co-infiltrated into tobacco leaves; extract (50 mM Tris-HCl pH 8.0, 150 mM NaCl, 0.5% Triton X-100) incubated with GFP agarose beads 3-4 h at 4°C; blot with anti-Flag and anti-GFP.

Results are given in words; binding and its absence hold for the method and conditions named. For part of these data: In cells and extracts the contact can be indirect. Some entries that bind do so weakly or less than the wild type. Sequences can lack the tags named with a protein.

B1: U2AF65a (yeast two-hybrid fusion, pGADT7) (protein, UniProt O23212 1-573)
chain: MSEFEDHEGNGTVADAIYDEENGGRDGEIEDQLDSKPKRESRDHERETSRSKDREREKGRDKDRERDSEVSRRSRDRDGEKSKERSRDKDRDHRERHHRSSRHRDHSRERGERRERGGRDDDDYRRSRDRDHDRRRDDRGGRRSRRSRSRSKDRSERRTRSRSPSKSKQRVSGFDMAPPASAMLAAGAAVTGQVPPAPPTLPGAGMFPNMFPLPTGQSFGGLSMMPIQAMTQQATRHARRVYVGGLSPTANEQSVATFFSQVMAAVGGNTAGPGDAVVNVYINHEKKFAFVEMRSVEEASNAMSLDGIIFEGAPVKVRRPSDYNPSLAATLGPSQPSPHLNLAAVGLTPGASGGLEGPDRIFVGGLPYYFTESQVRELLESFGGLKGFDLVKDRETGNSKGYAFCVYQDLSVTDIACAALNGIKMGDKTLTVRRANQGTMLQKPEQENVLLHAQQQIAFQRVMLQPGAVATTVVCLTQVVTEDELRDDEEYGDIMEDMRQEGGKFGALTNVVIPRPSPNGEPVAGLGKVFLKYADTDGSTRARFGMNGRKFGGNEVVAVYYPEDKFEQGDYGA
Regarding B1, the binding entry in test [1], in test [2], in test [3], in test [4] and in test [5] was “binds” throughout.

B2: SC35-Flag (protein, UniProt Q9FMG4 1-303)
chain: MSHFGRSGPPDISDTYSLLVLNITFRTTADDLYPLFAKYGKVVDVFIPRDRRTGDSRGFAFVRYKYKDEAHKAVERLDGRVVDGREITVQFAKYGPNAEKISKGRVVEPPPKSRRSRSRSPRRSRSPRRSRSPPRRRSPRRSRSPRRRSRDDYREKDYRKRSRSRSYDRRERHEEKDRDHRRRTRSRSASPDEKRRVRGRYDNESRSHSRSLSASPARRSPRSSSPQKTSPAREVSPDKRSNERSPSPRRSLSPRSPALQKASPSKEMSPERRSNERSPSPGSPAPLRKVDAASRSQSPYAAE
With B2, the binding result with NRPB4-YFP was “no binding”.

B3: SCL33-Flag (protein, UniProt Q9SEU4 1-287)
chain: MRGRSYTPSPPRGYGRRGRSPSPRGRYGGRSRDLPTSLLVRNLRHDCRQEDLRKSFEQFGPVKDIYLPRDYYTGDPRGFGFVQFMDPADAADAKHHMDGYLLLGRELTVVFAEENRKKPTEMRARERGGGRFRDRRRTPPRYYSRSRSPPPRRGRSRSRSGDYYSPPPRRHHPRSISPREERYDGRRSYSRSPASDGSRGRSLTPVRGKSRSLSPSPRRSISRSPRRSRSPSPKRNRSVSPRRSISRSPRRSRSPRRSRRSYTPEPARSRSQSPHGGQYDEDRSPSQ
Turning to B3, the binding entry with NRPB4-YFP is “no binding”.

B4: U1-70K (yeast two-hybrid fusion, pGADT7) (protein, UniProt Q42404 1-427)
chain: MGDSGDPFLRNPNAAVQARAKVQNRANVLQLKLMGQSHPTGLTNNLLKLFEPRPPLEYKPPPEKRKCPPYTGMAQFVSNFAEPGDPEYAPPKPEVELPSQKRERIHKLRLEKGVEKAAEDLKKYDPNNDPNATGDPYKTLFVSRLNYESSESKIKREFESYGPIKRVHLVTDQLTNKPKGYAFIEYMHTRDMKAAYKQADGQKIDGRRVLVDVERGRTVPNWRPRRLGGGLGTSRVGGGEEIVGEQQPQGRTSQSEEPSRPREEREKSREKGKERERSRELSHEQPRERSRDRPREDKHHRDRDQGGRDRDRDSRRDRDRTRDRGDRDRRDRDRGRDRTSRDHDRDRSRKKERDYEGGEYEHEGGGRSRERDAEYRGEPEETRGYYEDDQGDTDRYSHRYDKMEEDDFRYEREYKRSKRSESREYVR
In the case of B4, the binding result in test [1], in test [2], in test [3], in test [4] and in test [5] was “binds” throughout.

B5: SCL28-Flag (protein, UniProt Q1PDV2 1-236)
chain: MARARSRSRSYSPRPRDRSPPRERKGYDDNRLRERPSSRDHESSGPSGLLIRNLPLDARPNDLRDSFERFGPLKDIYLPRNYYTGEPRGFGFVKYRYAEDAAEAMKRMNHKVIGGREIAIVFAEENRKTPQEMRTTNGTSGRHGDYKRTSHRSPRRRYRSHSRSRSPPRRESRHSKVREDDLYSPRRRSRSISRSPLPRNEREYKSRNCRSPREERVLTPIRSRCLSRSRSRSLSR
Regarding B5, the binding result in the test with NRPB4-YFP is reported as “binds”.

B6: SCL30a-Flag (protein, UniProt Q9LHP2 1-262)
chain: MRGRSYTPSPPRGYGRRGRSPSPRGRFGGSRDSDLPTSLLVRNLRHDCRQEDLRRPFEQFGPVKDIYLPRDYYTGDPRGFGFIQFMDPADAAEAKHQMDGYLLLGRELTVVFAEENRKKPTEMRTRDRGGRSNRFQDRRRSPPRYSRSPPPRRGRRSRSRSRGYNSPPAKRHQSRSVSPQDRRYEKERSYSRSPPHNGSRVRSGSPGRVKSHSRSPRRSVSPRKNRSYTPEQARSQSPVPRQSRSPTPVPRGAQNGDRSPSQ
As to B6, in the test with NRPB4-YFP, the binding result is “no binding”.

B7: SCL30-Flag (protein, UniProt Q8L3X8 1-262)
chain: MRRYSPPYYSPPRRGYGGRGRSPPPPPPRRGYGGGGGGGGRRGSSHGSLLVRNIPLDCRPEELREPFERFGPVRDVYIPRDYYSGQPRGFAFVEFVDAYDAGEAQRSMNRRSFAGREITVVVASESRKRPEEMRVKTRTRSREPSGSRDRSHGRSRSRSISRSRSPRRPSDSRSRYRSRSYSPAPRRRGGPPRGEEDENYSRRSYSPGYEGAAAAAPDRDRNGDNEIREKPGYEAEDRRRGGRAVSRSPSGSRSRSVEVSPR
Regarding B7, the binding result with NRPB4-YFP is “binds”.

For the origin of these results see article PMC5362245, “Depletion of Arabidopsis SC35 and SC35-like serine/arginine-rich proteins affects the transcription and splicing of a subset of genes”.
